Source: the supplement of paper PMC7125110
± gives the standard error. Variants at the background level are over-represented here.

B1: glmS ribozyme (parent)
chain: AUAAAAGCGCCAGAACUACAGAAAUGUAGUUGACGAGGAGGAGGUUUAUCGAAUUUUCGGCGGAUGCCUCCAAA

Variants of: B1
Experiment: self-cleavage kobs at 160 uM GlcN6P; higher = faster cleavage; RNA array
Settings: with glucosamine-6-phosphate
Summary of the method: (§1)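 Glucosamine-6-phosphate, from 40 μM to 10 mM in HEPES/KCl/Mg(OAc)2 buffer, was flowed over sequenced MiSeq chips carrying barcoded ribozyme variants transcribed in situ by E. coli RNA polymerase. A hybridised Cy3 probe tracked the variants at 37 °C as tiles were imaged over ~14 h. kobs, kcat and KM were obtained by fitting normalised per-tile medians to exponential decays and then applying weighted Michaelis–Menten fits across concentrations.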

| Variant | self-cleavage kobs at 160 uM GlcN6P [s⁻¹] |
| --- | --- |
| U57C C58G | < 1e-05 |
| U57C G59C C71A | < 1e-05 |
| U57G G59U A64U | < 1e-05 |
| C58U C71A | < 1e-05 |
| C58U G62U | < 1e-05 |
| C61G G62U C68G | < 1e-05 |
| C61U G62C G66A C71U | < 1e-05 |
| C68A C71G | 3.29e-05 ± 1e-05 |

Variants of: B1
Experiment: self-cleavage kobs at 2500 uM GlcN6P; higher = faster cleavage; RNA array
Settings: with glucosamine-6-phosphate
Summary of the method: as §1

| Variant | self-cleavage kobs at 2500 uM GlcN6P [s⁻¹] |
| --- | --- |
| U57C G59C C71A | < 1e-05 |
| C61G G62U C68G | < 1e-05 |
| C68A C71G | 3.63e-05 ± 9.6e-06 |
| A1C C11A C16G A64U | < 1e-05 |
| U2C A53C | 0.00726 ± 0.0019 |
| A6C A12U U30A G41C U49G | < 1e-05 |
| A6C A14U U46A | < 1e-05 |
| A6C A15G U57A G62C A64U | < 1e-05 |
| A6C A15U G35A G40U | < 1e-05 |
| A6C A15U G43A C71U | < 1e-05 |
| A6C A36U G37C A39U | < 1e-05 |
| A6C A39G C50G C61U | < 1e-05 |
| A6C A39G G51C | < 1e-05 |
| A6C A52G | < 1e-05 |
| A6C A64C C67U | < 1e-05 |
| A6C C8G G44A | < 1e-05 |
| A6C C8U A12G U47A | < 1e-05 |
| A6C C10A A36C U57C A64G | < 1e-05 |
| A6C C11A U31A C58A | < 1e-05 |
| A6C G7U U45A | < 1e-05 |
| A6C G9A U46A U57A | < 1e-05 |
| A6C G9U C70A | < 1e-05 |
| A6C G13U A33U A52C G63C | < 1e-05 |
| A6C G13U C67U | < 1e-05 |
| A6C G13U U46G | < 1e-05 |

| Variant | self-cleavage kobs at 2500 uM GlcN6P [s⁻¹] |
| --- | --- |
| A6C G29C A52U C70U | < 1e-05 |
| A6C G32C A39U C61G | < 1e-05 |
| A6C G32U G41U U54A | < 1e-05 |
| A6C G35A G51U C68G | < 1e-05 |
| A6C G37C U49G C70U | < 1e-05 |
| A6C G41C G44U C58U | < 1e-05 |
| A6C G41U C50U C58U C67U | < 1e-05 |
| A6C G44U C71A | < 1e-05 |
| A6C U30A G41A G44C A48U | < 1e-05 |
| A6C U31A C34A | < 1e-05 |
| A6C U65C C68G | < 1e-05 |
| A6G A14C G44A G51U | < 1e-05 |
| A6G A14G A36U | < 1e-05 |
| A6G A14U U54A | 0.000117 ± 2.9e-05 |
| A6G A15U U46A A64U | < 1e-05 |
| A6G A33U G66U | < 1e-05 |
| A6G A42C G62U A64U C68A | < 1e-05 |
| A6G A42U U47C | < 1e-05 |
| A6G A53U C71A | < 1e-05 |
| A6G C10G U30A G32U U56G | < 1e-05 |
| A6G C10G U31A | < 1e-05 |
| A6G C11G U45A C50A | < 1e-05 |
| A6G C11G U69G | 7.2e-05 ± 2.9e-05 |
| A6G G7A A14C C70U | < 1e-05 |
| A6G G13C G37A C68A | < 1e-05 |

| Variant | self-cleavage kobs at 2500 uM GlcN6P [s⁻¹] |
| --- | --- |
| A6G G13U G41U G51U | < 1e-05 |
| A6G G26U U46C | < 1e-05 |
| A6G G29C A33G C34A | < 1e-05 |
| A6G G32C U45C U54C G62A | < 1e-05 |
| A6G G32U A53G U54G | < 1e-05 |
| A6G G35U G40A | < 1e-05 |
| A6G G37A U45C U65G | < 1e-05 |
| A6G G38A C50G U57G C68U | 8.04e-05 ± 1.4e-05 |
| A6G G38C C71A | < 1e-05 |
| A6G G38C G41U C68U | < 1e-05 |
| A6G G40A G41C | < 1e-05 |
| A6G G40U A52G A53U | < 1e-05 |
| A6G G43A G51U | < 1e-05 |
| A6G G43U G44A A48U G63A | < 1e-05 |
| A6G G43U U45A C50U G59A U69G C70U | < 1e-05 |
| A6G G51C G62A | < 1e-05 |
| A6G G59C G63U | < 1e-05 |
| A6G U30A A36C G41A U56C | < 1e-05 |
| A6G U31C A42G G62C | < 1e-05 |
| A6G U54C C70A | < 1e-05 |
| A6G U54C G59C | < 1e-05 |
| A6U A12C C34U A48G C61G A64U | < 1e-05 |
| A6U A14C A48C G51A | < 1e-05 |
| A6U A14C G32C G41A | < 1e-05 |
| A6U A14C U45A A48G G66U | < 1e-05 |

| Variant | self-cleavage kobs at 2500 uM GlcN6P [s⁻¹] |
| --- | --- |
| A6U A14G A33C G35U G40A A48C G51U | < 1e-05 |
| A6U A14G U69G | 0.000146 ± 3.5e-05 |
| A6U A14U G32U G41C A42C G43C C58A | < 1e-05 |
| A6U A14U U31C A42G A52C A64C | < 1e-05 |
| A6U A15G C34G U54A | < 1e-05 |
| A6U A15G G35U A36C U69C | < 1e-05 |
| A6U A15U A36C | < 1e-05 |
| A6U A15U U46G G59A | < 1e-05 |
| A6U A42C U57G | < 1e-05 |
| A6U C8G C10G | < 1e-05 |
| A6U C8G G44C A53G | < 1e-05 |
| A6U C8U C11A C16U G44U | < 1e-05 |
| A6U C10A A48G C58G | < 1e-05 |
| A6U C10U C11U G44A | < 1e-05 |
| A6U C11U G32U U55G A64C | < 1e-05 |
| A6U C16A C58U | < 1e-05 |
| A6U C16G | 2.28e-05 ± 1e-05 |
| A6U C34G A64C | < 1e-05 |
| A6U C71A | 3.22e-05 ± 1.3e-05 |
| A6U G7A G35A | < 1e-05 |
| A6U G7A G60U G62U U65G | < 1e-05 |
| A6U G7U A36U A42U C58U A64U | < 1e-05 |
| A6U G13A G35A G66C | < 1e-05 |
| A6U G29C G40C G44U C50G | < 1e-05 |
| A6U G29C G63A | < 1e-05 |

| Variant | self-cleavage kobs at 2500 uM GlcN6P [s⁻¹] |
| --- | --- |
| A6U G32U U57G | < 1e-05 |
| A6U G35C G37U A39G | < 1e-05 |
| A6U G35U A42C A48G | < 1e-05 |
| A6U G35U G37C U47A | < 1e-05 |
| A6U G35U G51U | < 1e-05 |
| A6U G37A G51C | < 1e-05 |
| A6U G38A G40C U65G | < 1e-05 |
| A6U G40U A48C | < 1e-05 |
| A6U G40U C68U | < 1e-05 |
| A6U G43C U54A | < 1e-05 |
| A6U G44A U56A | < 1e-05 |
| A6U U30C G40C | < 1e-05 |
| A6U U30G G35C G62U | < 1e-05 |
| A6U U31C G59A G66C | < 1e-05 |
| G7A A12C A15U G41U | < 1e-05 |
| G7A A12C G13A U46A C50U | < 1e-05 |
| G7A A12G G60U G63U | < 1e-05 |
| G7A A14U U30C | < 1e-05 |
| G7A A15G U31C C34U C50U U54A G59U | < 1e-05 |
| G7A A33C A53G A64U | < 1e-05 |
| G7A A33G G44U G66U | < 1e-05 |
| G7A A33U A42U G44U G51A | < 1e-05 |
| G7A A36G G38A U47G A53G | < 1e-05 |
| G7A A48G C70U | < 1e-05 |
| G7A C8A U56G | < 1e-05 |

| Variant | self-cleavage kobs at 2500 uM GlcN6P [s⁻¹] |
| --- | --- |
| G7A C8G A12G G13C | < 1e-05 |
| G7A C8G G9C U31G G37C C67U C68G C70G | < 1e-05 |
| G7A C10U G35U G43U | < 1e-05 |
| G7A C11A A12U G32A G60A C61G | < 1e-05 |
| G7A C34U U46G | < 1e-05 |
| G7A G9C A33U G38U A53U C68A | < 1e-05 |
| G7A G9C A36C | < 1e-05 |
| G7A G9U G44A | < 1e-05 |
| G7A G37U A52C G62A C71U | < 1e-05 |
| G7A G38U G41U | < 1e-05 |
| G7A G41U C67A | < 1e-05 |
| G7A G43U G51C | < 1e-05 |
| G7A U31C A39G A52U | < 1e-05 |
| G7A U45A C61A | < 1e-05 |
| G7C A12C A14G A64G C68U | < 1e-05 |
| G7C A33C U47G G60U | < 1e-05 |
| G7C A33U U47G | < 1e-05 |
| G7C C8A G9A C10G A12G A33C U57G | < 1e-05 |
| G7C C10U G13C G66U | < 1e-05 |
| G7C C11A A15U C16U A36G | < 1e-05 |
| G7C C11U G60U | < 1e-05 |
| G7C C16U C68A C70G | < 1e-05 |
| G7C G9U U54A | < 1e-05 |
| G7C G13C A48G C50U C71U | < 1e-05 |
| G7C G29A U30A G35A | < 1e-05 |

| Variant | self-cleavage kobs at 2500 uM GlcN6P [s⁻¹] |
| --- | --- |
| G7C G29U C34A | < 1e-05 |
| G7C G38A A52C G60C | < 1e-05 |
| G7C G41U G59U | < 1e-05 |
| G7C U30G G32U A64G | < 1e-05 |
| G7C U45G A48U C67A | < 1e-05 |
| G7U A14U C16G A33U | < 1e-05 |
| G7U A33U C34A A39G G51A A53U C71U | < 1e-05 |
| G7U A39C U69C | < 1e-05 |
| G7U C8G C16G G59A | < 1e-05 |
| G7U C8U U55A A64U | < 1e-05 |
| G7U C10A U49G | < 1e-05 |
| G7U C10G C11A U56A | < 1e-05 |
| G7U C11U A53U U55C | < 1e-05 |
| G7U C16U A36U | < 1e-05 |
| G7U C16U U49G C67G | < 1e-05 |
| G7U C34A C70U | < 1e-05 |
| G7U C58G G66C | < 1e-05 |
| G7U C67G | < 1e-05 |
| G7U G9C U47A U56G G59U C70A | < 1e-05 |
| G7U G9U U56A G59U | < 1e-05 |
| G7U G13A A15C G29U A36G | < 1e-05 |
| G7U G13A U30G | < 1e-05 |

Variants of: B1
Experiment: self-cleavage kobs at 10000 uM GlcN6P; higher = faster cleavage; RNA array
Settings: with glucosamine-6-phosphate
Summary of the method: as §1

| Variant | self-cleavage kobs at 10000 uM GlcN6P [s⁻¹] |
| --- | --- |
| C58U G62U | < 1e-05 |
| A6C A14U U46A | < 1e-05 |
| A6C G9A U46A U57A | < 1e-05 |
| A6C G9U C70A | < 1e-05 |
| A6G U31C A42G G62C | < 1e-05 |
| A6U C8G C10G | < 1e-05 |
| A6U C16G | 3.87e-05 ± 6.9e-06 |
| A6U C71A | 4.63e-05 ± 1.1e-05 |
| A6U U30G G35C G62U | < 1e-05 |
| G7C A33U U47G | < 1e-05 |
